# Changes are numbered by the printed parent chain; changes in the protein carry UniProt numbers. Some of the results follow.
# T1: RBFOX1 RRM RbFoxmut (Fox-RRM*) (Homo sapiens, UniProt Q9NWB1 109-208, R118D;E147R;N151S;E152T)
# T1 sequence: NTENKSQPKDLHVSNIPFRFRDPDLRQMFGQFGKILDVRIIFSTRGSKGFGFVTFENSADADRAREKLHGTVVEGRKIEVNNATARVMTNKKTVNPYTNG
# B1: UAAGCGA (DNA:RNA)
# RNA: GGGAGACCGGAAUUCAGAUUGUCCUAAGCGAUUAAAUCCCGUCGUAGCCACCA
# DNA 1: CAATCTGAATTCCGGTCTCCC
# DNA 2: TGGTGGCTACGACGGGATT
# B2: GUGACUC (DNA:RNA)
# RNA: B1 RNA with U25G, A26U, A27G, G28A, G30U, A31C
# DNA 1: CAATCTGAATTCCGGTCTCCC
# DNA 2: TGGTGGCTACGACGGGATT
# B3: CAUAGCC (DNA:RNA)
# RNA: B1 RNA with U25C, A27U, G28A, C29G, G30C, A31C
# DNA 1: CAATCTGAATTCCGGTCTCCC
# DNA 2: TGGTGGCTACGACGGGATT
# B4: ACAUACG (DNA:RNA)
# RNA: B1 RNA with U25A, A26C, G28U, C29A, G30C, A31G
# DNA 1: CAATCTGAATTCCGGTCTCCC
# DNA 2: TGGTGGCTACGACGGGATT
# B5: CGCAGGU (DNA:RNA)
# RNA: B1 RNA with U25C, A26G, A27C, G28A, C29G, A31U
# DNA 1: CAATCTGAATTCCGGTCTCCC
# DNA 2: TGGTGGCTACGACGGGATT
# B6: GAGACGA (DNA:RNA)
# RNA: B1 RNA with U25G, A27G, G28A
# DNA 1: CAATCTGAATTCCGGTCTCCC
# DNA 2: TGGTGGCTACGACGGGATT
# B7: AGAGAUG (DNA:RNA)
# RNA: B1 RNA with U25A, A26G, C29A, G30U, A31G
# DNA 1: CAATCTGAATTCCGGTCTCCC
# DNA 2: TGGTGGCTACGACGGGATT
# B8: GUAAUUG (DNA:RNA)
# RNA: B1 RNA with U25G, A26U, G28A, C29U, G30U, A31G
# DNA 1: CAATCTGAATTCCGGTCTCCC
# DNA 2: TGGTGGCTACGACGGGATT
# B9: CUUAAAG (DNA:RNA)
# RNA: GGGAGACCGGAAUUCAGAUUGUCCCUUAAAGUUAAAUCCCGUCGUAGCCACCA
# DNA 1: CAATCTGAATTCCGGTCTCCC
# DNA 2: TGGTGGCTACGACGGGATT
# Target: T1, RBFOX1 RRM RbFoxmut (Fox-RRM*)
# Assay: EMSA; HiTS-Eq, 1 nM pool, 10 min; buffer printed only for the single-RNA assays: 10 mM Tris pH 7.5, 150 mM NaCl, 3.4 mM EDTA, 0.001% NP-40, 30 C
# Conditions: tags: His6 N-terminal (pET28a); label: 5' 32P
# Method in brief: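 Relative association constants, normalised to the cognate motif, were derived by comparing read counts of each RNA species with those of the control reaction. The RNA sequenced was the free fraction, separated by 8% native PAGE after a 10 min equilibration in 50 µL of 1 nM 5′-radiolabelled RNA (7 randomized nucleotides) with increasing concentrations of purified wild-type or mutant RbFox RRM.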
row,Binder,binding signal
1,B1,0.0635 KA relative to UGCAUGU
2,B2,0.101 KA relative to UGCAUGU
3,B3,0.181 KA relative to UGCAUGU
4,B4,0.111 KA relative to UGCAUGU
5,B5,0.129 KA relative to UGCAUGU
6,B6,0.0516 KA relative to UGCAUGU
7,B7,0.159 KA relative to UGCAUGU
8,B8,0.116 KA relative to UGCAUGU
9,B9,0.0894 KA relative to UGCAUGU

# Reference: PMC9911399, “Two distinct binding modes provide the RNA-binding protein RbFox with extraordinary sequence specificity”
